Experimental data from PMC6919601, “Identification of Plasmodium dipeptidyl aminopeptidase allosteric inhibitors by high throughput screening” (PLoS ONE, 2019).
Out of some 110,000 compounds screened, about 230 (0.21%) showed an effect of 50% or more. Some of the results follow.

Each compound was assayed against DPAP1 (Plasmodium falciparum, UniProt Q8IIJ9) (assay: primary screen, percent inhibition; read by cleavage of a fluorogenic dipeptide substrate; higher = more effect of the substance).
Design: species or system P. falciparum D10 trophozoite lysates; single well
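Note: 30 min substrate incubation versus DMSO and 10 µM JCP410 controls.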

Sequence of DPAP1 (Q8IIJ9 whole entry, looked up): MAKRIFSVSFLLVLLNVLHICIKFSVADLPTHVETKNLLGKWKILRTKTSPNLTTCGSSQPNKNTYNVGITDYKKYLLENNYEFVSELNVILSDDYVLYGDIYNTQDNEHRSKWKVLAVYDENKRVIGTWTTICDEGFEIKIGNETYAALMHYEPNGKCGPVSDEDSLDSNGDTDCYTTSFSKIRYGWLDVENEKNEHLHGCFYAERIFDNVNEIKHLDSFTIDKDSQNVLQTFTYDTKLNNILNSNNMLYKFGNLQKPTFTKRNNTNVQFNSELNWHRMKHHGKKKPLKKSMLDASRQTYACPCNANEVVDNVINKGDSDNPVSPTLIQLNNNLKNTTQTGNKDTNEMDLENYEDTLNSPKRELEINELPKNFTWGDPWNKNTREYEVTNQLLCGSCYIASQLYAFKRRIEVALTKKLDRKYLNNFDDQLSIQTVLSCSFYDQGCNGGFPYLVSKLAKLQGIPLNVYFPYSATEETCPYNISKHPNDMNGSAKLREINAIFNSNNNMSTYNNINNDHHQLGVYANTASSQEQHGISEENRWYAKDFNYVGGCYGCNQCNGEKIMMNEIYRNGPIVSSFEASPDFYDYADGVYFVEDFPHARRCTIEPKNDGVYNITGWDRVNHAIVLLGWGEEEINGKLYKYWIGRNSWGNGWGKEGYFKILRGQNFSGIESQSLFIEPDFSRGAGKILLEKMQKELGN

SMILES	% Inhibition @ 10 uM [%]
CN(C)c1ccc(NC(=O)c2nc3ccccc3s2)cc1	-1.61
CCOc1ccc(C2c3cccn3CCN2C(=S)NC(C)(C)C)cc1 (stereo not shown)	-8.59
Cc1nc2ccc(S(=O)(=O)NCC(=O)NCCC(C)C)cc2s1	-6.09
O=C(NCCc1nc2ccccc2[nH]1)C1CCCCC1	-0.0235
Cc1ccc(OCC(=O)Nc2ccncc2)cc1	-3.52
C=C(C)CN(CC)Cc1cccc([N+](=O)[O-])c1	-1.78
COc1cccc(-c2nn(C)c3sc(C(=O)N4CCCC(C)C4)cc23)c1 (stereo not shown)	-4.14
Cc1cc(O)c(C2=Nc3ccccc3SC(c3ccccc3O)C2)c(=O)o1 (stereo not shown)	-2.18
CC/N=C1\S/C(=C\c2cn(CC)c3ccccc23)C(=O)N1CC	-8.75
CCn1c(S)nnc1-c1csc(C(C)C)c1	-4.84
COc1cccc(CO)c1OCC(=O)Nc1ccccc1	1.27
CCNC(=O)/C(=C\c1ccc(OC)cc1)NC(=O)c1ccc(Br)o1	-2.64
CC(C)C[C@H](NC(=O)c1ccc2nc(-c3ccc[n+](C)c3)oc2c1)C(=O)NCC#N	1.7
CCOc1ccc(-c2cc(NC(=O)c3noc4c3COc3ccc(C)cc3-4)on2)cc1	-0.825
Cc1ccc(C(=O)N/C(=C/c2ccco2)C(=O)NCC2CCCO2)cc1 (stereo not shown)	-6.69
COc1ccccc1NC(=O)c1c(-c2ccccc2)noc1C	-4.21
O=C(O)c1ccc2nc(-c3ccc(-c4nc5ccc(C(=O)O)cc5o4)cc3)oc2c1	-7.71
O=C(O)C1=NN(c2ccccc2)C(=O)/C1=C\c1ccc2c(c1)OCO2	2.65
CCCN(CCC)S(=O)(=O)c1ccc(C(=O)Nc2nc(-c3ccc(F)cc3)cs2)cc1	2.79
CCC1CCCCN1C(=O)Cn1c(SCc2cccc(C)c2)nc2ccncc21 (stereo not shown)	-0.637
Cc1nc(NCCO)nc(NCCO)c1[N+](=O)[O-]	-0.239
O=C(NCc1ccccc1)C(O)(c1ccc(F)cc1)c1ccc(F)cc1	-2.86
CN(C)c1ccc([N+](=O)[O-])c2nonc12	5.66
COCCN1C(=O)c2ccccc2C(C(=O)NCCC2=CCCCC2)C1c1cccs1 (stereo not shown)	-7.34
COc1ccc(OC)c(NC(=O)Cc2ccc(OC)c(OC)c2)c1	-2.17

SMILES	% Inhibition @ 10 uM [%]
CCOC(=O)C1=C(C)N=c2s/c(=C\c3cccnc3)c(=O)n2C1c1ccc(OC)cc1 (stereo not shown)	3.61
Cn1c(=O)c2c(nc3n(Cc4ccccn4)c(C45CC6CC(CC(C6)C4)C5)cn23)n(C)c1=O	-7.46
CCOC(=O)C1=C(C)N=c2s/c(=C\c3cccc(O)c3)c(=O)n2C1c1ccccc1Cl (stereo not shown)	-5.28
Cc1ccc(Cn2nc(C)c(NC(=O)c3cc4n(n3)C(C(F)(F)F)CC(c3ccco3)N4)c2C)cc1 (stereo not shown)	0.778
CCOC(=O)c1cc(-c2ccccc2)sc1NC(=O)CC	-2.87
Cc1c(CN(C)C(=O)c2cc3nc(-c4cccs4)cc(C(F)(F)F)n3n2)cnn1C	-1.35
COc1ccc(S(=O)(=O)Nc2ccc(-c3cn4ccsc4n3)cc2)cc1	0.726
CCCNC(=O)CCc1nc(-c2ccc(C)cc2)no1	-2.21
NC(=O)C1CCN(C(=O)CN2CCN(Cc3ccc4c(c3)OCO4)CC2)CC1	-5.51
COc1ccc(-c2noc(CN(C)C(=O)c3c(-c4ccccc4Cl)noc3C)n2)cc1	4.31
CN(CC(=O)Nc1ccccc1Sc1ccccc1)S(=O)(=O)c1ccccc1	-3.26
Cc1cc(C)n2nc(N3C(=O)CCC3=O)nc2n1	6.7
CCN(c1ccccc1)S(=O)(=O)c1ccc(NC(=O)Nc2ccccc2)cc1	-1.44
COC(=O)c1cc(S(=O)(=O)NCC(C)c2ccccc2)cn1C (stereo not shown)	-6.86
CCOc1ccccc1/C=C(\C#N)c1nc(-c2ccc([N+](=O)[O-])cc2)cs1	-4.11
Cc1cc(C)c(C)c(S(=O)(=O)N2CCN(C(=O)c3ccco3)CC2)c1C	-2.97
COc1ccccc1C(=O)Nc1cc(-c2nc3cc(C)ccc3o2)ccc1Cl	-5.96
CC(C)C1NC(=S)N(c2ccccc2)N1 (stereo not shown)	6.4
Cc1ccc(O)c(-n2cc3c(c2-c2ccccc2)c(=O)n(C)c(=O)n3C)c1	-3.12
COc1ccc(S(=O)(=O)Nc2ccc(S(=O)(=O)N3CCOCC3)cc2)cc1C	6.57
CCN(CC)C(=O)/C(=C/c1cn(S(=O)(=O)N(C)C)c2ccccc12)NC(=O)c1ccccc1	7.77
CC1=C(C(=O)Nc2cc(C)ccn2)C(c2ccc3c(c2)OCO3)C2=C(O)CCCC2=N1 (stereo not shown)	-6.34
Cc1nc(-c2c(C)[nH]c3ccccc23)cs1	13.9
Cn1c(=O)c(-c2nc3ccccc3[nH]2)c(O)c2ccccc21	2.92
